To fix the notation:
B1: CPEB3 Ribozyme (parent)
chain: UAACAGGGGGCCACAGCAGAAGCGUUCACGUCGCAGCCCCUGUCAGAUUCUGGUGAAUCUGCGAAUUCUGCUGUAUAUCUC

Read counts are not given, so values of variants with three or more changes are uncertain.

In the data set the parent is B1. In words: self-cleavage, relative activity (ratio to wild type); higher = more cleavage; in vitro, sequencing. The method in brief:
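Relative activity compares each variant's cleaved/total read fraction with that of the unmutated ribozyme. To get these fractions, barcoded CPEB3 ribozyme libraries from rounds of error-prone PCR were transcribed with T7 RNA polymerase for 5 hours at 37°C and then given 15 min of DNase I treatment before EDTA was added. The RNAs were reverse transcribed with template switching and sequenced on Illumina, and DNA sequencing linked barcodes to variants. A minimum of 5 reads applied, and three batches were averaged.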
On to UAGCAGGGGGCCACAGCAGAAGCGUUCACGUCGCAGCCCCUGUCAGUUUCUGGUGAAUCUGCGAAUCCUGCUGUAUAUCUC [A3G A47U U67C], for which the self-cleavage is 0.36.
For UAGCAGGGGGCCACAGCAGAAGCGUUCACGUCGCAGCCCCUGUCAGAUUCUGGUGAGUCUGCGAAUUCUGCGGUAUAUCUC [A3G A57G U72G], the self-cleavage worked out at 0.52.
The value for UAGCAGGGGGCCACAGCAGAAGCGUUCCCGCCGCAGCCCCUGUCAGAUUCUGGUGAGUCCGCGAAUUCUGCUGUAUAUCCC [A3G A28C U31C A57G U60C U80C] was 0.12.
The value for UAGCAGGGGGCCACAGCAGAAGCGUUCACGUCGCAGCCCCUGUCUGAUUCUGGUGAAUCUGCGGAUUCUGCUGUAUAUCUC [A3G A45U A64G] was 0.29; that for UAGCAGGGGGCCACAGCAGAAGCGUUCGCGUCGCUGCCCCUGUCAGAUUCUGGUGAAUCUGCGAAUUCUGCUGUAAACCUC [A3G A28G A35U U76A U78C] was 0.37.
The value for UAGCAGGGGGACACAGCAGAAGCGUUCACGUCGCAGCCCCUGUCAGAUUCUGAUGAACCUGCGAAUUCUGCUGUAUAUCUC [A3G C11A G53A U58C] was 0.1; that for UAGCAGGGGGCCACAGCAGAAGCGUUCACGUCGCUGCCCCUGUCAGAUUCUGGUGAAUCUGCGAGUUCUGCUGUAUAUCUC [A3G A35U A65G] was 0.36; that for UAGCAGGGGGCCACAGCAGAAGCGUUCACGUCGCGGCCCCUGUCAGAUUCUGGUGAACCUGCGGACUCUGCUGUAUAUCUC [A3G A35G U58C A64G U66C] was 0.68.
Take UAGCAGGGGGCCACAGCAGAAGCGUUCACGUCGCAGCCCCUGUCAGAUUCUGGUGGAUCUGCGAAUUCUGCUGUAUAUCAC [A3G A56G U80A]: the self-cleavage is 1.13.
The result for UAGCAGGGGGCCACAGCAGAAGCGUUCACGUCGCUGCCCCUGUCAGAUACUGGUGAAUCUGCGAGUUCAGCUGUAUAUCUC [A3G A35U U49A A65G U69A] reads 0.15.
On to UAGCAGGGGGCCACAGCAGAAGCGUUCACGUCGCUGCCCCUGUCUGAUUCUGGUGAAUCUGCGAAUUCUGCUGUAUAUCUC [A3G A35U A45U], for which the self-cleavage was 0.32.
Take UAGCAGGGGGCCACAGCAGAAGCGUUCGCGUCGCAGCCCCUGUCAGAUUCUGGUGGAUCUGCGAAUUCUGCUGUAUAUCUC [A3G A28G A56G]: the self-cleavage is 0.51.
For the variant UAGCAGGGGGCCACAGCAGAAGCGUUCACGUCGCGGCCCCCGUCAGAUUCUGGUGAACCCGCGAAUUCUGCUGUAUAUCUC [A3G A35G U41C U58C U60C], the self-cleavage stood at 0.35.
For the variant UAGCAGGGGGCCACAGCAGAAGCGUUCGCGUCGCAGCCCCUGUCAGACUCUGGCAAAUCUGCGGAUUCUGCUGUACAUCUC [A3G A28G U48C U54C G55A A64G U76C], the self-cleavage worked out at 0.3.
In the case of UAGCAGGGGGCCACAGCAGAAGCGUUCACGUCGCAGCCCCUGUCUGUUUAUGGUGAAACUGCGAGUUCUGCCGUAUAUCUC [A3G A45U A47U C50A U58A A65G U72C], the self-cleavage came out at 0.14.
The value for UAGCAGGGGGCCACAGCAGAAGCGUUCACGUCGCGGCCCCUGUCAGAUUCUGGUGAAUCUGCGGAUUCUGCUGUUUACCUC [A3G A35G A64G A75U U78C] was 1.25; that for UAGCAGGGGGCCACAGCAGAAGCGUUCACGUCGCUGCCCCUGUCAGAUUCUGGUGAAUCUGCGAAUCCUGCUGUAUAUCUC [A3G A35U U67C] was 0.13; that for UAGUAGGGGGCCACAGCAGAAGCGUUCGCGUCGCAGCCCCUGUCAGAUUCUGGUGAAUCUGCGAAGUCUGCUGUAUGUCUC [A3G C4U A28G U66G A77G] was 0.64.
With UAGCAGGGGGCCACAGCAGAAGCGUUCACGUCGCAGCCCCUGUCAGGUUCUGGUGAAUCCGCGAGUUCUGCUGUAUAUCUC [A3G A47G U60C A65G], the self-cleavage turned out to be 0.34.
The value for UAGCAGGGGGCCACAGCAGAAGCGUUCGCAUCGCAGCCCCAGUCAGAUUCUGGUGAAUCUGCGAAUUCUGCUUUAUACCUC [A3G A28G G30A U41A G73U U78C] was 0.09.
The value for UAGCAGGGGGCCACAGCAGAAGCGUUCACGUCGCUGCCCCUGUCAGGUUCUGGUGAUUCUGCGUAUUCUGCUGUAUAUCUC [A3G A35U A47G A57U A64U] was 0.12; that for UAGCAGGGGGCCACAGCAGAAGCGUUCGCGUCGCAGCCCCUGUCAGCUUCAGGUGAAUCUGCGAAUUCUGCUGUAUAUCUC [A3G A28G A47C U51A] was 0.24.
UAGCAGGGGGCCACAGCAGAAGCGUUCACGUCGCAGCCCCUGUCGGGUUCUGGUGAGUCUGCGAGUUCUGCUGUAUACCUC [A3G A45G A47G A57G A65G U78C]: the self-cleavage stood at 0.3.
The value for UAGCAGGGGGGCACAGCAGAAGCGUGCACGUCGCAGCCCCUGUCAGAUUCUGGUGAAUCUGCGAAUUCUGCUGUAUAUCUC [A3G C11G U26G] was 0.09; that for UAGCAGGGGGCCACAGCAGAAGCGUUCGCGUCGCAGCCCCUGUCAGGUUCUGGUGAAUCUGCGGAUUCUGCUGUAUAUCAC [A3G A28G A47G A64G U80A] was 0.77.
For the variant UAGCAGGGGGCCACAGCAGAAGCGUUCACGUCGCAGCCCCUGUCUGAUUCUGGUGGAUCUGCGAAUUCUGCUGUAUAUCUC [A3G A45U A56G], the self-cleavage is 0.13.
The result for UAGCAGGGGGCCACAGCAGAAGCGUUCGCGUCGCGGCCCCUGUCAGAUUCUGGUGAAUCUGCGAAUUCUGCUGUAUAUCUC [A3G A28G A35G] reads 1.2; that for UAGCAGGGGGCCACAGCAGAAGCGUUCACGUCGCAGCCCCUGUCGGAUUCUGGUGUAUCUGCGAAUUCUGCUGUAUAUCUC [A3G A45G A56U], 0.24; that for UAGCAGGGGGGCACAGCAGAAGCGUUCACGUAGCAGCCCCUGUCAGAUCCUGGUGAAUCUGCGAAUUCUGCUGUAUAUCUC [A3G C11G C32A U49C], 0.08.
Take UAGCAGGGGGCCACAGCAGAAGCGUUCACGUCGCAGCCCCUGUCAGGUCCUGGUGAAUCUGCGGAUCCUGCUCUCUAUCUC [A3G A47G U49C A64G U67C G73C A75C]: the self-cleavage turned out to be 0.06.
With UAGCAGGGGGCCACAGCAGAAGCGUUCACGUCGCUGCCCCUGUCAGAUUCUGGUGAAUCUGCGAAUUCUGCUAUGUAUCUC [A3G A35U G73A A75G], the self-cleavage is 1.04.
Take UAGCAGGGGGCCACAGCAGAAGCGUUCACGUCGCUGCCCCUAUCAGAUUCUGGUGAAUCUGCGAAUUCUGCUGUAUUUCUC [A3G A35U G42A A77U]: the self-cleavage worked out at 0.29.
UAGCAGGGGGCCACAGCAGAAGCGUUCACGUCGCAGCCCCUGUCAGAUUCUGGUGAGUCUGCGAAUUCUGCUGUAUAUCAC [A3G A57G U80A]: the self-cleavage was 1.16.
The result for UAGCAGGGGGCCACAGCAGAAGCGUUCACGUCGCAGCCCCUGUCCGACUCUGGUGAAUCUGCGGAUUCUGCUGUAUAUCUC [A3G A45C U48C A64G] reads 0.16.

Source of the values: the RNAGym collection of RNA variant scans (doi:10.1093/nar/gkz1192).
